Laboratory results from PubChem BioAssay AID1508624 (National Center for Advancing Translational Sciences (NCATS), 2021).
Out of some 48,000 compounds screened, about 120 (0.25%) were called active. Another 4% or so got no clear call; they are omitted. Calls follow the shape of the dose curve; as a rule, active = well fitted activation curve with a large enough effect; inconclusive = small, poorly fitted or top-dose-only effect, or another doubt; inactive = no such curve, though single readings can be large or run the other way. This is one part of the list.

Experiment: Primary qHTS for Identification of Small Molecule Activators of Huntingtin-Antisense Promoter Activity; also: nearly all actives have a fitted effect of over 55% in size
Conditions: HEK293 HTT-AS promoter firefly luciferase reporter (activity 0% = vehicle and -100% = no light), 24 h; series mostly up to 57.5 µM; activity change, positive = activation: at the top concentration
How it was run: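 HEK293 Fluc reporter, 2,500 cells/well, 24 h pre-culture; cpds up to 57.5 uM final, 24 h 37 degrees C; Dual-Glo, 10 min RT; normalized vehicle = 0%, zero RLU = -100%.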

Activity change, positive = activation, inactive:
Cc1ccc(NC(=O)C(=O)NCC(c2cccnc2)N2CCN(Cc3ccccc3)CC2)cc1C (configuration not stated) -21.7%
COc1ccccc1OCCn1c(NC(=O)c2ccccc2Cl)nc2ccccc21 5.78%
CCOc1ccccc1NC(=O)c1c(NC(=O)COc2ccc(Cl)cc2)sc2c1CCCCC2 -14.6%
COCCNC(=O)CCC(=O)NNc1nc2ccccc2c2nc(C)nn12 -11.9%
Cc1ccc(NC(=O)C2(c3ccc4c(c3)OC(F)(F)O4)CC2)nc1-c1cccc(C(=O)O)c1 -34.9%
CS(=O)(=O)N1CCc2cc(C(=O)N3CCN(c4cccc(Cl)c4)CC3)ccc21 -2.8%
Cc1ccc(C)c(N2CCN(C(=O)c3cn(CC(C)C)c(=O)c4c3c3ccccc3n4C)CC2)c1 -10.4%
COCCCNc1nc(NCc2ccccc2OC)c2cnn(C)c2n1 -25.8%
Cc1ccc(NC(=O)C2(c3cccs3)CCOCC2)cc1Cl -16.6%
COc1ccc(Br)cc1C1C(C(=O)Nc2ccc(C)cc2C)=C(C)Nc2ncnn21 (configuration not stated) -20.7%
Cc1ccc(C)c(CSc2nc(-c3ccccc3F)nc3c2Cc2c(CO)cnc(C)c2O3)c1 -9.65%
COc1cccc(NC(=O)Cn2nnc(C(=O)NCc3cccs3)c2N)c1 -0.23%
COc1ccc(NC(=O)Cn2c(=O)n(-c3cc(C)cc(C)c3)c(=O)c3oc4ccccc4c32)cc1OC -26.1%
O=C(NCCc1ccccc1)c1nn(-c2ccccc2F)nc1CO -24.9%
Cc1ccc2c(CNCCc3ccccc3)c(C(=O)O)n(Cc3ccccc3C)c2c1 -20%
CCC(Cn1nnc2ccccc2c1=O)NC(=O)Nc1cc(C)cc(C)c1 (configuration not stated) -18.2%
CC(C)C(=O)Nc1nnc2n1CCS2 -1.88%
Cc1nc(N2CCCC2)c2c(C(=O)N3CCN(c4ccccc4)CC3)c(C)oc2n1 -7.7%
Cc1cc2c(n1-c1ccc(C(=O)NCCc3ccc(Cl)cc3)cc1)CCCC2 4.35%
CC(=O)N1CCCc2cc(S(=O)(=O)N3CCCC(C(=O)N4CCN(c5cccc(Cl)c5)CC4)C3)ccc21 (configuration not stated) -51%
CCc1ccc(C(=O)c2cn(CC(=O)Nc3ccc(Cl)cc3)c3cc4c(cc3c2=O)OCO4)cc1 -29.5%
CCOc1ccc(CNC(=O)c2cccc(NC(=O)N3CCSc4ncccc43)c2)cc1OC -36.8%
Cc1ccc(S(=O)(=O)n2nc(C)c(S(=O)(=O)N3CCCCCC3)c2C)cc1 -17.1%
Cc1ccc(C)c(CSc2nnc3[nH]c(=O)cc(C)n23)c1 1.67%
CC(C)c1nn2c(=O)cc(COC(=O)c3cccc(NC(=O)COc4ccc(F)cc4)c3)nc2s1 -29.6%
COc1ccc(C)cc1NC(=O)c1noc2c1CSc1ccccc1-2 -10.9%
COc1ccc(C2C(C(=O)Nc3ccccc3)=C(C)Nc3c(C(=O)Nc4ccccc4)cnn32)cc1 (configuration not stated) -22.2%
